Structures can show the parent of a compound that is named as a salt.
Tests used:
[1] = test system: adrenergic receptors; assay: α-blocking activity of the product of Example 6; type: in vivo, dogs
Description: The product is α-blocking from a dose of 5 mg/kg administered intravenously.

[2] = test system: dogs; assay: Vasodilating properties of the product of Example 6 in anaesthetised dogs; type: in vivo
Description: When administered intra-arterially, the product of Example 6 is injected directly into the femoral artery. The flow rate is increased by 200% from a dose of 10 μg.

[3] = test system: dogs; assay: Cardiovascular action of the product of Example 7 in anaesthetised dogs; type: in vivo; conditions: i.v., from 2.5 mg/kg
[4] = test system: adrenergic receptors; assay: Adrenolytic action of the product of Example 7 (reversal of the hypertension due to adrenalin); type: in vivo, dogs
[5] = test system: adrenergic receptors; assay: Oral α-blocking activity in dogs (hypertensive effects of adrenalin); type: in vivo; conditions: orally

For `CCC(=O)OCCN1CCN(CC2COc3ccccc3O2)CC1` (centres unmarked) [Example 6, 1-[2-(1,4-Benzodioxanyl)-methyl]-4-[2-(propionyloxy)-ethyl]-piperazine dihydrochloride], which “dose from which the product is α-blocking” value ([1]; i.v.) is on record?
Its value is at least 5 mg/kg.

What about the “dose at which activity is found again intraduodenally” value ([1]; intraduodenal) of the same compound?
Its value is 10 mg/kg.

And the “femoral flow rate effect (conclusion)” value ([2]; conclusion)?
The value was “of short duration and is not reproducible”.

What about the vertebral flow rate ([2]; i.v. 2.5, 5 and 10 mg/kg, one test intraduodenal 10 mg/kg) of the same compound?
Its vertebral flow rate is “only increases in one of the two tests wherein the pulse rate was increased”.

What about the “increase in femoral flow rate” value ([2]; injected into the femoral artery, from a dose of 10 μg) of the same compound?
The value was 200%.

And the “passage through the intestinal barrier” value ([2]; intraduodenal)?
Its value is “passes through the intestinal barrier”.

`CC(=O)OCCN1CCN(CC2COc3ccccc3O2)CC1` (centres unmarked) [Example 7, 1-[2-(1,4-Benzodioxanyl)-methyl]-4-[2-acetyloxy)-ethyl]-piperazine dihydrochloride] was tested. Which pulse rate [3] did it give?
The pulse rate was “does not vary markedly”.

What about the arterial pressure effect ([3]; both dogs) of the same compound?
Its arterial pressure effect is “hypotension”.

What about the left ventricular pressure ([3]; both dogs) of the same compound?
The left ventricular pressure was “decrease”.

What about the ratio dp/dt ([3]; both dogs) of the same compound?
The ratio dp/dt was “decrease”.

What about the systolic ejection time ([3]; both dogs) of the same compound?
The systolic ejection time was “decrease”.

What about the “α-lytic action (conclusion)” value ([4]; conclusion) of the same compound?
The value was “α-lytic”.

And the “dose from which adrenolytic action is demonstrated” value ([4]; i.v., reversal of the hypertension due to adrenalin)?
Its value is at least 2.5 mg/kg.

How did the α-blocking activity [5] turn out when `OCCN1CCN(CC2COc3ccccc3O2)CC1` (centres unmarked) [free base, 1-[2-(1,4-benzodioxanyl)-methyl]-4-(2-hydroxyethyl)-piperazine, reference compound] was run?
The α-blocking activity was “does not show any α-blocking activity”.
